Test results taken from PMC4336329 (PLoS ONE, 2015).
About 14,000 (4.5%) of roughly 310,000 compounds showed an effect of 50% or more. The effect is printed as a negative number. Some of the results follow.

What follows are compounds tested against human ether-à-go-go-related gene (hERG) potassium channel (human, UniProt Q12809) (assay: primary screen, population patch clamp on CHO cells stably expressing hERG).
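Note: peak tail current of the secondary pulse compared with the same well before compound.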

human ether-à-go-go-related gene (hERG) potassium channel, sequence (Q12809 whole entry, looked up): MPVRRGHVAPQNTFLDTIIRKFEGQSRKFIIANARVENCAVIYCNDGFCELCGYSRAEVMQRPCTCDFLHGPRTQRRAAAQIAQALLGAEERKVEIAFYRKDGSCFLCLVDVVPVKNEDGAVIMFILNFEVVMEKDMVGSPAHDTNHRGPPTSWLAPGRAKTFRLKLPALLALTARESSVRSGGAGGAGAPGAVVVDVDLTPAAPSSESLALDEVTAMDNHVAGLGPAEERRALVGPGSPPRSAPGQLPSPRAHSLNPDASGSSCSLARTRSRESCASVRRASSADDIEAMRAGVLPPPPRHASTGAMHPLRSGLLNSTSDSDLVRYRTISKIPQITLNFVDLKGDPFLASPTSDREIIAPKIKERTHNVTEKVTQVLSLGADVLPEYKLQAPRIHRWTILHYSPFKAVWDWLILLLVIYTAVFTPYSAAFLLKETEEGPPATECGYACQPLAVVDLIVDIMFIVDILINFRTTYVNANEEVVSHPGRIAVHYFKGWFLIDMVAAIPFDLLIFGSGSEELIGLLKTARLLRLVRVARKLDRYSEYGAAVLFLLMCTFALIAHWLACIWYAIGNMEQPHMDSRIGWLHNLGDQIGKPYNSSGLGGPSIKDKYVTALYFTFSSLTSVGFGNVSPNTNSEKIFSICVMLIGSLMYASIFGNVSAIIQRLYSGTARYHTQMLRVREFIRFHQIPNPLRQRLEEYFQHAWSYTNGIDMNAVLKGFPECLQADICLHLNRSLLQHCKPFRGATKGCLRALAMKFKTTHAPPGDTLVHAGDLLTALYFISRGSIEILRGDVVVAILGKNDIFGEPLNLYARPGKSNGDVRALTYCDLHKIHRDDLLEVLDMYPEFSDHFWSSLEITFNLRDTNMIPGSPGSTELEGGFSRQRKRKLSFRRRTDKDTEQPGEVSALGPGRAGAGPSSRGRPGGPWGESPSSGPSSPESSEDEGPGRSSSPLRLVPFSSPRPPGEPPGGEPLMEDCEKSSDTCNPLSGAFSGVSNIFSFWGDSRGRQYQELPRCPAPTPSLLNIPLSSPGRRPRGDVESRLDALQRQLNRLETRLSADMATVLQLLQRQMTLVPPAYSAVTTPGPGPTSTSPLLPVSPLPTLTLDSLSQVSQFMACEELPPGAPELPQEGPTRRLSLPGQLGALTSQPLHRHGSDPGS

Compound	hERG current change (%, negative = inhibition) at 10uM
COCCCNc1ncnc2c1nc1n2CCCC1	18.6%
CNC(=O)c1nn(-c2ccc(C)cc2)ccc1=O	3.71%
c1ccc(Nc2nc(-c3ccncc3)cs2)nc1	-2.23%
O=C(NCc1ccccc1)C1=C[C@@H](c2ccc(C(F)(F)F)cc2)C[C@@H](OCc2ccc(CO)cc2)O1	-5.36%
CCC1CCCCN1CCNC(=O)c1[nH]c(C)c(C(C)=O)c1C (stereo not drawn)	1.47%
C=CCN1C(=O)C(Cc2cccc(C)c2)SC1=Nc1ccc(C(=O)O)cc1 (stereo not drawn)	-14.4%
CCn1nnc(NC(=O)C(C)(c2ccccc2)c2ccccc2)n1	-10.4%
Cc1cc(C)c(NC(=S)N(CCCN2CCOCC2)Cc2cccnc2)c(C)c1	-0.52%
Cc1ccccc1-c1nnc(CN2CCC(C)CC2)o1.Cl	-6.6%
Cc1cccc(C)c1OCCNC(=O)OCc1ccccc1	-6.74%
CCS(=O)(=O)c1nc(S(=O)(=O)c2ccc(C)cc2)c(NCCCN(C)C)s1	-6.03%
Cc1ccc(-c2nc3ncccn3c2NC(=O)C2CC2)cc1	13.9%
CCOC(=O)C(NC(=O)c1ccc(OC)cc1)(OCC1(CC)COC1)C(F)(F)F (stereo not drawn)	9.1%
CC1CC(C)CN(C(=O)c2ccc3c(c2)N(Cc2ccccc2)CCS3)C1 (stereo not drawn)	-3.05%
COc1ccc(/C(C)=N/NC(=O)CNC(=O)c2cccnc2)cc1OC	18.2%
C=CCn1c(C)cc(C(=O)CSc2nnc(C3CC3)n2C2CC2)c1C	-5.39%
CO/C([O-])=N/c1c[n+](-c2ccc(Cl)cc2)no1	3.67%
Cc1ccc(-c2nnc(SCC(=O)Nc3nc4c(s3)CCCC4)n2C)cc1	6.99%
O=C(CN(CC1CCCO1)C(=O)CCC(=O)Nc1ccccn1)NCC1CCCO1 (stereo not drawn)	13.8%
O=S1(=O)N(CCN2CC=C(c3c[nH]c4cc(F)ccc34)CC2)c2cccc3c2N1CCC3	-21.4%
COc1cc(CC(=O)Nc2sc3c(c2C(N)=O)CCCC3)cc(OC)c1OC	7.83%
COc1ccc(NC(=O)COc2coc(CN3CCc4ccccc43)cc2=O)cc1	2.74%
COc1ccc(C2(c3ccc(OC)cc3)NC(=O)N(CC(=O)N(C)C3CCC(C)CC3)C2=O)cc1 (stereo not drawn)	-18.9%

Compound	hERG current change (%, negative = inhibition) at 10uM
CC1(C)CC(=O)C=C(Nc2ccc(Cl)cc2)C1	5.47%
CCCOc1ccc(NC(=O)CC2C(=O)N(CC)C(=S)N2Cc2cccs2)cc1 (stereo not drawn)	2.79%
Cc1sc2ncnc(NCc3cccs3)c2c1C	-61.7%
COc1ccc(/C(O)=C/C(=O)C(=O)NNC(=O)c2ccccc2)cc1	-2.7%
Cc1ccc(-c2cc(C(=O)n3cnc4ccccc43)c3ccccc3n2)cc1C	7.36%
O=C(NN1C(=O)C2C3c4ccccc4C(c4ccccc43)C2C1=O)c1ccccc1 (stereo not drawn)	11.7%
COc1ccc(-c2oc3ccc(-c4cc(OC)c(OC)c(OC)c4)cc3c2C(=O)c2ccc(OC)nc2)cc1	13.6%
COc1ccccc1NC(=O)c1cc(Br)ccc1Cl	2.96%
COc1ccccc1CN(C)C(=O)CNC(=O)c1cccc(Cl)c1	9.69%
Cc1cc(NC(=O)Nc2ccccc2Cl)no1	8.67%
COc1ccc(CCN2CC(C(=O)N3CCCCCC3)CCC2=O)cc1 (stereo not drawn)	10.6%
O=C(COC(=O)c1ccc(Br)o1)NCc1ccco1	3.53%
c1csc(-c2cc(N3CCCCC3)c3ccccc3n2)c1	17%
Nn1c(SCC(=O)Nc2ccccc2)nnc1C1CCCCC1	-1.45%
O=C(c1ccc2c3c(cccc13)CC2)C1CCCN(Cc2cccnc2)C1 (stereo not drawn)	-63.4%
C/C(=N\NC(=O)c1ccc(Cl)c(Cl)c1)c1ccc(Br)s1	-4.57%
CCOc1ccc2nc(N(CCN(CC)CC)C(=O)/C=C/c3cccs3)sc2c1.Cl	9.88%
Nc1nnnn1/N=C/c1ccc(F)cc1	29.7%
COc1cc(C(C#N)N2CCC(c3ccccc3)=N2)ccc1O (stereo not drawn)	-10.4%
CCCn1c(SCC(=O)Nc2cccc(C(=O)OCC)c2)nnc1-c1ccoc1C	-2.61%
O=S(=O)(Cc1ccccc1)c1ccccc1-c1nnc(-c2ccccc2)o1	12.4%
COc1ccc(C(=O)NCC(=O)Nc2ccc(F)cc2)cc1OC	0.171%
C/C=C/C=N/Nc1nc(C)cc(=O)[nH]1	-3.9%

Compound	hERG current change (%, negative = inhibition) at 10uM
O=C(CN1C(=O)/C(=C/c2ccc(Cl)cc2)SC1=S)NC1C=CS(=O)(=O)C1 (stereo not drawn)	9.98%
COc1cc(/C=N/NC(=O)c2nonc2C)ccc1O	27.5%
N#CCSc1nc(Nc2ccc3c(c2)OCO3)c2ccccc2n1	-2.16%
COc1ccc(-c2nc(CC(=O)O)cs2)cc1OC	21.3%
O=C(NNC(=O)c1ccccc1-n1cccc1)c1ccc(Cl)cc1Cl	-7.83%
COc1cccc(-c2cccc(NC(=O)C3CCN(Cc4ccc(CO)o4)CC3)c2)c1	-32.5%
CCCCNC(=O)C1CCN(S(=O)(=O)c2ccc3c(c2)CC(C)N3C(=O)C2CC2)CC1 (stereo not drawn)	1.16%
c1ccc(-c2csc(Nc3nc(N4CCOCC4)nc(N4CCOCC4)n3)n2)cc1	6.59%
CC(Oc1ccccc1)C(=O)NC1=NCCS1 (stereo not drawn)	8.52%
CC(=O)Nc1cccc(C(=O)Nc2ccccc2C(=O)O)c1	7.39%
Cc1ccc(C)c(NC(=S)NNC(=O)c2ccco2)c1	10.2%
COc1ccc(OC)c(/C=N\NC(=O)c2c(C)nc3cc(C)ccn23)c1	-31%
CCn1c(C)nnc1SCC(=O)Nc1ccccc1Cl	4.99%
CC(C)NCC(O)COc1ccc(CCOCC2CC2)cc1.Cl (stereo not drawn)	-8.64%
CC1=CC2=NC(=O)/C(=C\c3cccn3CCOc3ccccc3C)C(=N)N2O1	19.4%
COc1ccc(C(=O)COC(=O)CNC(=O)c2cccc(OC(F)F)c2)cc1	-64.6%
O=C(NCC1CC1)C1CCCN(S(=O)(=O)c2ccc(-n3cnnn3)cc2)C1 (stereo not drawn)	-63.7%
O=C(O)c1cc2ccccc2oc1=O	-3.63%
COc1ccc(CC(=O)O/N=C(\N)c2ccccn2)cc1	-0.445%
CC(=O)Nc1cc(NC(C)=O)c(N=Nc2ccccc2)cc1C	8.41%
CC1Cc2ccccc2N1CC(=O)NC(=O)NC1CCCCC1 (stereo not drawn)	-8.93%
Nc1ncc(N=Nc2cc(C(=O)O)ccc2Cl)s1	4.47%
CCCCn1c(N)c(N(CC(C)C)C(=O)C2CC(=O)N(c3ccc4c(c3)OCCO4)C2)c(=O)[nH]c1=O (stereo not drawn)	8.32%

Compound	hERG current change (%, negative = inhibition) at 10uM
Cc1ccc(NC(=O)CSC2=C(C#N)C(c3ccc4c(c3)OCO4)CC(=O)N2)cc1C (stereo not drawn)	0.529%
NCCCC[C@H]1CNC(=O)C(=O)N1CCCCC1CCCCC1	17.4%
CC(C)N1CCN(Cc2cccn2-c2nccs2)CC1CCO (stereo not drawn)	10.2%
O=C(COC(=O)c1c[nH]c2ccccc12)NC1CCCC1	7.16%
COc1cc(/C=N/NC(=O)CCC(=O)NC2CCCCC2)ccc1C	-10.2%
Cc1ccc(NC(=O)CN(C)C(=O)COC(=O)C2=COCCO2)cc1	15.1%
CCCCCN(C(=O)CCC(=O)OCc1ccccc1Cl)c1c(N)n(CCCC)c(=O)[nH]c1=O	-49.8%
CCc1ccccc1NC(=S)N(Cc1cccs1)C1CCCC1	7.22%
Cc1ccc(-n2nc3c(N4CCC(C(=O)N5CCC(C(N)=O)CC5)CC4)nnc(C)c3c2C)cc1	12%
O=C(Cc1ccccc1)NCC(=O)N1CCc2ccccc2C1	1.51%
O=C(Nc1cccc(Cl)c1)c1c(O)c2c(n(Cc3ccco3)c1=O)CCCC2	5.45%
Cc1ccc(NC(=O)CSc2ccc(-c3ccco3)nn2)c(C)c1	-24.4%
CCOC(=O)N1CCN(C(=O)c2ccc3c(=O)n(CCC4=CCCCC4)c(=S)[nH]c3c2)CC1	15.4%
O=C(NNC(=O)c1cccnc1SCc1cccc([N+](=O)[O-])c1)c1cccnc1	-10.1%
O=C(COC(=O)/C=C/c1ccccc1Cl)NCc1ccccc1	-11.1%
CCCNS(=O)(=O)c1ccc(OCC(=O)NCC2CCCO2)cc1 (stereo not drawn)	29.8%
Cc1c(OCc2ccccc2)c(=O)ccn1Cc1ccccc1	-10.2%
CN(CC(=O)Nc1ccc(F)cc1[N+](=O)[O-])Cc1ccccc1	23.7%
CN(CC(=O)Nc1cccc(F)c1)C(=O)/C=C/c1ccc2ccccc2n1	7.19%
CCc1cc[n+](CC(=O)Nc2ccc(Cl)cc2Cl)cc1.[Cl-]	-4.73%
C=CCn1c(C)cc(C(=O)COC(=O)/C=C/c2ccc(OC)cc2)c1C	12.3%
